Assay results from PubChem BioAssay (NCI).
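Protocol summary: plate cells (96-well), add compound at 5 concentrations, incubate 48 h, interpolate endpoints linearly. GI50 = concentration required for 50% inhibition of growth.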 A number of entries come with more than one value. Only these are listed. An entry can have further records. The values listed for one entry are repeats in other runs, samples, wells, individuals or studies. A tag in brackets gives the origin of a value. Letters count within one entry.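 TGI is the concentration that stops growth completely.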

Key:
Assay in all cases: NCI tumour cell line growth inhibition, 48 h
SK-MEL-28 melanoma = test system: SK-MEL-28 melanoma
TK-10 renal = test system: TK-10 renal
LOX IMVI melanoma = test system: LOX IMVI melanoma
SK-MEL-2 melanoma = test system: SK-MEL-2 melanoma
HOP-62 NSCLC = test system: HOP-62 NSCLC
ACHN renal = test system: ACHN renal
A549 NSCLC = test system: A549 NSCLC
OVCAR-4 ovarian = test system: OVCAR-4 ovarian
MCF7 breast = test system: MCF7 breast
SF-268 CNS = test system: SF-268 CNS
CCRF-CEM leukemia = test system: CCRF-CEM leukemia
NCI-H226 lung = test system: NCI-H226 lung
HS 578T breast = test system: HS 578T breast
SN12C renal = test system: SN12C renal
K-562 leukemia = test system: K-562 leukemia
NCI-H522 lung = test system: NCI-H522 lung
EKVX NSCLC = test system: EKVX NSCLC
U251 CNS = test system: U251 CNS
786-0 renal = test system: 786-0 renal
SF-295 CNS = test system: SF-295 CNS

Cc1cc(C(=O)NOCCO)c(Nc2ccc(I)cc2F)n(C)c1=O
TGI (SK-MEL-28 melanoma): 13.9 nM [sample A, 1 test] and > 100 µM [sample B, 1 test] | GI50 (TK-10 renal): > 10 µM [sample A, 1 test] and < 10 nM [sample B, mean of 2 tests] | GI50 (LOX IMVI melanoma): 5.46 nM [sample A, mean of 2 tests] and 283 nM [sample B, mean of 2 tests] | TGI (SK-MEL-2 melanoma): 1.2 µM [sample A, 1 test] and < 10 nM [sample B, 1 test] | GI50 (HOP-62 NSCLC): 26.8 nM [sample A, mean of 2 tests] and 495 nM [sample B, mean of 2 tests] | GI50 (ACHN renal): 44.1 nM [sample A, 1 test] and 2.97 µM [sample B, mean of 2 tests] | GI50 (A549 NSCLC): 69.6 nM [sample A, 1 test] and 813 nM [sample B, mean of 2 tests] | GI50 (OVCAR-4 ovarian): > 10 µM [sample A, mean of 2 tests] and 640 nM [sample B, mean of 2 tests]

O=C(Nc1ccc([N+](=O)[O-])cc1Cl)c1cc(Cl)ccc1O
TGI (MCF7 breast): > 100 µM [sample A, 1 test] and 1.13 µM [sample B, mean of 2 tests] | TGI (SF-268 CNS): > 92.9 µM [sample A, mean of 2 tests] and 5.2 µM [sample B, mean of 2 tests] | TGI (CCRF-CEM leukemia): 14.1 µM [sample A, 1 test] and 1.31 µM [sample B, 1 test] | TGI (LOX IMVI melanoma): 7.05 µM [sample A, mean of 2 tests] and 645 nM [sample B, 1 test] | TGI (NCI-H226 lung): 9.44 µM [sample A, mean of 2 tests] and 646 nM [sample B, 1 test] | TGI (HS 578T breast): 884 nM [sample A, mean of 2 tests] and 11.7 µM [sample B, mean of 2 tests] | TGI (SN12C renal): > 33.4 µM [sample A, mean of 2 tests] and 2.34 µM [sample B, mean of 2 tests] | TGI (K-562 leukemia): > 100 µM [sample A, mean of 2 tests] and 5.19 µM [sample B, mean of 2 tests] | TGI (NCI-H522 lung): 3.19 µM [sample A, mean of 2 tests] and 276 nM [sample B, mean of 2 tests] | TGI (EKVX NSCLC): > 100 µM [sample A, mean of 2 tests] and 4.77 µM [sample B, mean of 2 tests] | TGI (U251 CNS): > 100 µM [sample A, mean of 2 tests] and 9.97 µM [sample B, mean of 2 tests]

Cn1cc(-c2[nH]c3cc(NC(=O)[C@H](N)C4CCCCC4)cc4c3c2C=NNC4=O)cn1
TGI (786-0 renal): 858 nM [sample A, mean of 2 tests] and > 10 µM [sample B, mean of 2 tests] | TGI (SF-295 CNS): 986 nM [sample A, mean of 2 tests] and > 10 µM [sample B, mean of 2 tests]
